The results in this text go back to ChEMBL document CHEMBL5606458, “ASAP - ZIKV NS2B-NS3 protease fluorescence single point” (2024).

One may read the inhibition as the relative decrease from the control value, in per cent.

The target of this experiment is Nonstructural protein 3 (Zika virus) (UniProt A0A024AXB9).
Setting [1] is: PRVABC59, Concentration 50.0 uM, Number of replicates 1.0.
Setting [2] is: PRVABC59, Concentration 15.0 uM, Number of replicates 1.0.

Molecules are shown by their SMILES. Among all 2,700 compounds or so, about 160 (5.9%) showed an effect of 50% or more. The list shows a part of the results.

Chain of UniProt A0A024AXB9 (A0A024AXB9 as listed by the source): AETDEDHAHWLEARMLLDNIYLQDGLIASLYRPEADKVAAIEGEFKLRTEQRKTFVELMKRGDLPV

As for `COc1cc(CS(=O)(=O)C2CCN(C(=O)OCc3ccccc3)CC2)nc(N2CCNCC2)n1`, the inhibition is, setting by setting: (PRVABC59, Concentration 49.5 uM, Number of replicates 2.0, Standard deviation 1.138158616709895 %) 3.25%; (PRVABC59, Concentration 99.01 uM, Number of replicates 2.0, Standard deviation 1.809774885464571 %) 6.9%; (PRVABC59, Concentration 198.0 uM, Number of replicates 2.0, Standard deviation 0.7331386978756042 %) 12%.
Take `C=CCN(Cc1ccc(F)cc1)C(=O)C1CCN(c2ccc(C=O)cc2)CC1`: the inhibition under setting [1] was determined as 25%.
Consider `O=C(NCc1ccccc1OCc1ccccc1)c1cc(Cl)ccc1NS(=O)(=O)c1ccc(Oc2ccccc2Cl)cc1`, for which the inhibition under setting [2] turned out to be 5.91%.
In the case of `O=Cc1ccc(N2CCC(C(=O)Nc3ccccc3-c3ccccc3)CC2)cc1`, under setting [1], the inhibition was determined as 22.6%.
`Cc1cnccc1NC(=O)c1cc(C)n(-c2ccccn2)n1`: the inhibition (PRVABC59, Concentration 49.5 uM, Number of replicates 2.0, Standard deviation 2.6411112043159872 %) is -1.81%; the inhibition (PRVABC59, Concentration 99.01 uM, Number of replicates 2.0, Standard deviation 0.8240702864618352 %) is -0.667%; the inhibition (PRVABC59, Concentration 198.0 uM, Number of replicates 2.0, Standard deviation 4.266095871930931 %) is -2.62%.
Take `N#CC1(c2ccccc2)CCN(C(=O)c2cc(Cl)ccc2NS(=O)(=O)c2ccc(Oc3ccccc3Cl)cc2)CC1`: the inhibition under setting [2] is 10.2%.
For `O=C(c1cc(Cl)ccc1NS(=O)(=O)c1ccc(Oc2ccccc2Cl)cc1)N1CC[C@@H](c2ccc(F)cc2)[C@H](COc2ccc3c(c2)OCO3)C1`, the inhibition under setting [2] is 0.523%.
On to `CNC(=O)CC[C@H]1CCCN(C(=O)C2CCN(c3ccc(C=O)cc3)CC2)C1`, for which the inhibition under setting [1] stood at 24%.
As to `O=C(Nc1cccc(F)c1[N+](=O)[O-])c1cc(Cl)ccc1NS(=O)(=O)c1ccc(Oc2ccccc2Cl)cc1`, the inhibition under setting [2] is 22.5%.
Take `COc1ccc(CN2CCC(c3c[nH]c4cccnc34)CC2)cc1`: the inhibition (PRVABC59, Concentration 49.5 uM, Number of replicates 2.0, Standard deviation 0.21004326604655832 %) came to 0.598%; the inhibition (PRVABC59, Concentration 99.01 uM, Number of replicates 2.0, Standard deviation 0.8142417098777236 %) is 6.55%; the inhibition (PRVABC59, Concentration 198.0 uM, Number of replicates 2.0, Standard deviation 1.1254172872302635 %) worked out at 14.8%.
On to `O=Cc1ccc(N2CCC(C(=O)NCCCc3nnc4ccccn34)CC2)cc1`, for which, under setting [1], the inhibition amounted to 26.2%.
In the case of `O=C(NCc1ccccc1OC(F)(F)F)c1cc(Cl)ccc1NS(=O)(=O)c1ccc(Oc2ccccc2Cl)cc1`, the inhibition under setting [2] stood at 32.6%.
Regarding `C=CCN(Cc1cccc(OC)c1)C(=O)C1CCN(c2ccc(C=O)cc2)CC1`, the inhibition under setting [1] was 22.3%.
As to `O=C1[C@@H]2CCCN2[C@@H](c2ccc([N+](=O)[O-])cc2)N1c1ccc([N+](=O)[O-])cc1`, the inhibition is, setting by setting: (PRVABC59, Concentration 49.5 uM, Number of replicates 2.0, Standard deviation 2.338852957072617 %) -3.37%; (PRVABC59, Concentration 99.01 uM, Number of replicates 2.0, Standard deviation 0.6958571129694138 %) 2.46%; (PRVABC59, Concentration 198.0 uM, Number of replicates 2.0, Standard deviation 1.5598791399729304 %) 12.6%.
As to `c1ccc2c([C@H]3CCN(Cc4nc[nH]n4)C3)c[nH]c2c1`, the inhibition worked out at 0.746% (PRVABC59, Concentration 49.5 uM, Number of replicates 2.0, Standard deviation 3.046935859270677 %); 2.65% (PRVABC59, Concentration 99.01 uM, Number of replicates 2.0, Standard deviation 3.804317266359065 %); 6.17% (PRVABC59, Concentration 198.0 uM, Number of replicates 2.0, Standard deviation 3.7934353610053253 %).
For `COc1cc(NC(=O)c2cc(Cl)ccc2NS(=O)(=O)c2ccc(Oc3ccccc3Cl)cc2)nc(OC)n1`, the inhibition under setting [2] was found to be 21.5%.
Turning to `CCOC(=O)c1coc(Cn2ncc(C3CCNCC3)c2C)n1`, the inhibition reads like this: (PRVABC59, Concentration 49.5 uM, Number of replicates 2.0, Standard deviation 0.16972261940821706 %) 0.506%; (PRVABC59, Concentration 99.01 uM, Number of replicates 2.0, Standard deviation 0.7758746750349835 %) 1.97%; (PRVABC59, Concentration 198.0 uM, Number of replicates 2.0, Standard deviation 2.5640234224727356 %) 6.52%.
As to `CCc1ccc([N+](=O)[O-])cc1NC(=O)C1CCN(c2ccc(C=O)cc2)CC1`, the inhibition under setting [1] was 26.3%.
The same measure, in the same setting: as for `O=Cc1ccc(N2CCC(C(=O)N3CCC(Oc4ccccc4)CC3)CC2)cc1`, the figure is 26%.
Take `COc1ccc(CCCNC(=O)c2cc(Cl)ccc2NS(=O)(=O)c2ccc(Oc3ccccc3Cl)cc2)cc1`: the inhibition under setting [2] worked out at 21.7%.
`O=Cc1ccc(N2CCC(C(=O)N[C@@H](Cn3ccnc3)c3ccccc3)CC2)cc1`: the inhibition (PRVABC59, Concentration 10.0 uM, Number of replicates 1.0) is 21.2%.
For the compound `O=C(NCc1ccccc1)c1cc(Cl)ccc1NS(=O)(=O)c1ccc(Oc2ccccc2Cl)cc1`, the inhibition under setting [2] amounted to 11.2%.
Regarding `Cc1cnccc1NC(=O)Cc1csc(Cc2ccccc2)n1`, the inhibition (PRVABC59, Concentration 49.5 uM, Number of replicates 2.0, Standard deviation 3.162795269897305 %) is -0.368%; the inhibition (PRVABC59, Concentration 99.01 uM, Number of replicates 2.0, Standard deviation 4.368253468547214 %) was -0.038%; the inhibition (PRVABC59, Concentration 198.0 uM, Number of replicates 2.0, Standard deviation 1.2762874105653153 %) was -2.15%.
Consider `O=C(c1cc(Cl)ccc1NS(=O)(=O)c1ccc(Oc2ccccc2Cl)cc1)N1CCN(c2ccc(F)cc2F)CC1`, for which the inhibition under setting [2] amounted to 8.71%.
On to `CCN(CC)CCC[C@H](C)NC(=O)C1CCN(c2ccc(C=O)cc2)CC1`, for which the inhibition under setting [1] was determined as 23.4%.
Regarding `O=S(=O)(NC1CCCCC1)c1ccc(Oc2ccccc2Cl)cc1`, the inhibition runs as follows: (PRVABC59, Concentration 49.5 uM, Number of replicates 2.0, Standard deviation 3.286338051007469 %) 3.44%; (PRVABC59, Concentration 99.01 uM, Number of replicates 2.0, Standard deviation 2.983820700744522 %) 5.81%; (PRVABC59, Concentration 198.0 uM, Number of replicates 2.0, Standard deviation 2.6312469714980353 %) 8.92%.
